Data: PMC6634424
Results are given in words; binding and its absence hold for the method and conditions named. Some results given as binding are weak or reduced against the parent protein; the word gives no strength.

T1: ZED1^wt (Arabidopsis thaliana) (UniProt Q8LGB6)
T1 sequence: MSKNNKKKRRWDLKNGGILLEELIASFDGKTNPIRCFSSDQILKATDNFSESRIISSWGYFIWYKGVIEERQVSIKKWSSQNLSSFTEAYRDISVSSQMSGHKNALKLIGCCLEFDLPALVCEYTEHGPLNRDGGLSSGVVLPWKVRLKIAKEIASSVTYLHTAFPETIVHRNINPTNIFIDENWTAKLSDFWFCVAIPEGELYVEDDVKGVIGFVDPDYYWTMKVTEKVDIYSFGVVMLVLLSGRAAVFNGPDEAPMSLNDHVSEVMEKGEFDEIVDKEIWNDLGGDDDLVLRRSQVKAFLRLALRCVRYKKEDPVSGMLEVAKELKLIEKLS

T2: ZRK1/RKS1 (Arabidopsis thaliana) (UniProt Q9SVY5)
T2 sequence: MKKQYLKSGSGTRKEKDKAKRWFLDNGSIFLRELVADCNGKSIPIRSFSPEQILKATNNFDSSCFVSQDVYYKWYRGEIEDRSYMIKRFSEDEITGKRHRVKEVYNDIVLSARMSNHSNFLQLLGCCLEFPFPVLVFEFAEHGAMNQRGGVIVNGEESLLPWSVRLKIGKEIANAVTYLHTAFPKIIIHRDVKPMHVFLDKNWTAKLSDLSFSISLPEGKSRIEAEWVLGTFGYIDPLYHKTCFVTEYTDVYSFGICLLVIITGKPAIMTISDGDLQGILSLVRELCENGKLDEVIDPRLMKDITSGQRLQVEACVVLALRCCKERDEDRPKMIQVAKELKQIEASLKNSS

B1: PBL5 (protein, UniProt Q9LQQ8 1-423)
chain: MGCFGCSKKSSKRSETNKDTVINRKIVGGTTSVAKSDKRDDQTQPSSDSTKVSPYRDVNNEGGVGKEDQLSLDVKGLNLNDQVTGKKAQTFTFQELAEATGNFRSDCFLGEGGFGKVFKGTIEKLDQVVAIKQLDRNGVQGIREFVVEVLTLSLADHPNLVKLIGFCAEGDQRLLVYEYMPQGSLEDHLHVLPSGKKPLDWNTRMKIAAGAARGLEYLHDRMTPPVIYRDLKCSNILLGEDYQPKLSDFGLAKVGPSGDKTHVSTRVMGTYGYCAPDYAMTGQLTFKSDIYSFGVVLLELITGRKAIDNTKTRKDQNLVGWARPLFKDRRNFPKMVDPLLQGQYPVRGLYQALAISAMCVQEQPTMRPVVSDVVLALNFLASSKYDPNSPSSSSGKNPSFHRDRDDEEKRPHLVKETECEGSS
B2: PBL8 (protein, UniProt Q8GXZ3 1-410)
chain: MGNCGTRDEAAVFTPQAQAQQLQKKHSRSVSDLSDPSTPRFRDDSRTPISYAQVIPFTLFELETITKSFRPDYILGEGGFGTVYKGYIDDNLRVGLKSLPVAVKVLNKEGLQGHREWLTEVNFLGQLRHPNLVKLIGYCCEDDHRLLVYEFMLRGSLENHLFRKTTAPLSWSRRMMIALGAAKGLAFLHNAERPVIYRDFKTSNILLDSDYTAKLSDFGLAKAGPQGDETHVSTRVMGTYGYAAPEYVMTGHLTARSDVYSFGVVLLEMLTGRKSVDKTRPSKEQNLVDWARPKLNDKRKLLQIIDPRLENQYSVRAAQKACSLAYYCLSQNPKARPLMSDVVETLEPLQCTGDALIPCATTTAGAAFAMGGVPDYRMHRRFAKNVGPGAICRSPNPNYSPGGPAACRVR
B3: PBL11 (protein, UniProt P43293 1-389)
chain: MGGCFSNRIKTDIASSTWLSSKFLSRDGSKGSSTASFSYMPRTEGEILQNANLKNFSLSELKSATRNFRPDSVVGEGGFGCVFKGWIDESSLAPSKPGTGIVIAVKRLNQEGFQGHREWLAEINYLGQLDHPNLVKLIGYCLEEEHRLLVYEFMTRGSLENHLFRRGTFYQPLSWNTRVRMALGAARGLAFLHNAQPQVIYRDFKASNILLDSNYNAKLSDFGLARDGPMGDNSHVSTRVMGTQGYAAPEYLATGHLSVKSDVYSFGVVLLELLSGRRAIDKNQPVGEHNLVDWARPYLTNKRRLLRVMDPRLQGQYSLTRALKIAVLALDCISIDAKSRPTMNEIVKTMEELHIQKEASKEQQNPQISIDNIINKSPQAVNYPRPSIM

target: T1, ZED1^wt (Arabidopsis thaliana); experiment: two-hybrid; Y3H: LexA-ZED1 bait, 46 PBL preys, HopZ1b expressed from the ho locus

binding	Molecule
binds	B1
binds	B2

target: T2, ZRK1/RKS1 (Arabidopsis thaliana); experiment: two-hybrid; Y2H: LexA-ZRK1/RKS1 bait, 46 PBL preys, no AvrAC; X-Gal reporter plates, 30°C

binding	Molecule
binds	B2

target: T1, ZED1^wt (Arabidopsis thaliana); experiment: two-hybrid; Y3H: LexA-ZED1 (wt or mutant) bait, PBL (wt or mutant) preys, HopZ1a^wt expressed from the yeast ho locus

binding	Molecule
binds	B1
binds	B2
binds weakly	B3

target: HopZ1a^wt (Pseudomonas syringae) (UniProt Q6VE93); experiment: two-hybrid; Y2H: LexA-HopZ1a (wt or C216A) bait, array of 46 NLS-B42-HA-PBL preys, diploid yeast, X-Gal reporter plates, 30°C

Molecule	binding
PBL3 (from UniProt O49840 1-426)	no binding
PBL18 (from UniProt Q5XF79 1-387)	no binding
PBL21 (from UniProt Q9LDZ5 1-381)	no binding
PBL8 (from UniProt Q8GXZ3 1-410)	no binding
PBL27 (from UniProt Q1PDV6 1-513)	no binding
PBL4 (from UniProt Q5PP29 1-412)	no binding
PBL15 (from UniProt Q9SY91 1-424)	no binding
PBL13 (from UniProt F4JZW1 1-494)	no binding
PBL2 (from UniProt O49839 1-426)	no binding
